According to paper PMC5846801:
These are yes or no findings as the source states them, for the method shown. Some binding calls cover weakened binding; strength is not graded here.

Chains of the proteins cited; added tags and fusions are not shown. Lines headed by an entry give the natural chain unless they say otherwise; changes in a name come on top. A line that says so, or that is headed by a name, gives the form on record, which may keep a tag or linker. Residues count along the entry.
UniProt Q16543: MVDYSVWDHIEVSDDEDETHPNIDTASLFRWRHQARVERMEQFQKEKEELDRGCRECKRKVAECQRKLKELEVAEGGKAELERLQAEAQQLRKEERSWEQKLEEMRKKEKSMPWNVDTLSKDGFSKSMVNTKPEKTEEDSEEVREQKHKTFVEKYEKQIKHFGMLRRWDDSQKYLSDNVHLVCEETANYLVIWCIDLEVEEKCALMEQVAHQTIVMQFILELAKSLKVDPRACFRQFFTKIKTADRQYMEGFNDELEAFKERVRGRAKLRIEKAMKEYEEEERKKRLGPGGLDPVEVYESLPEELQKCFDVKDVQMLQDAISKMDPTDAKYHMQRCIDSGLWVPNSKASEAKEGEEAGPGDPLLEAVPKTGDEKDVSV
wild-type FGFR3 kinase domain (P22607, residues 455-768): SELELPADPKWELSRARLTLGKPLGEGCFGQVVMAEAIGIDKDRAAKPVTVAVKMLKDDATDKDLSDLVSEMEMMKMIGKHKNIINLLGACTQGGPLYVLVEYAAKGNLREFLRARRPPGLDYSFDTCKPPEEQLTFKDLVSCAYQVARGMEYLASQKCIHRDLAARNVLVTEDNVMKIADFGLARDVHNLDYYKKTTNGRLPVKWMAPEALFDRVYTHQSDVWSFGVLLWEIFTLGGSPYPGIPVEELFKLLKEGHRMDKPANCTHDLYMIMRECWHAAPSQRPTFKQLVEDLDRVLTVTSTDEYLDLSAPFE
FGFR3 kinase domain variant N540K (P22607, form named): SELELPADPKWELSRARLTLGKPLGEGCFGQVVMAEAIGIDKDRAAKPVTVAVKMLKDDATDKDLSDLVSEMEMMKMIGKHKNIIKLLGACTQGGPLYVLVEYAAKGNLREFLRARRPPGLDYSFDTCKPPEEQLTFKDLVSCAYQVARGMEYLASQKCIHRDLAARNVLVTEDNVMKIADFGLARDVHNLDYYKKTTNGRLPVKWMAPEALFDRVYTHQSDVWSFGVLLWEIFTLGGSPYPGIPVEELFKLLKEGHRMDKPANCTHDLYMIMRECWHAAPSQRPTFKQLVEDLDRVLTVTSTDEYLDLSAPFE
FGFR3 kinase domain variant I538F (P22607, form named): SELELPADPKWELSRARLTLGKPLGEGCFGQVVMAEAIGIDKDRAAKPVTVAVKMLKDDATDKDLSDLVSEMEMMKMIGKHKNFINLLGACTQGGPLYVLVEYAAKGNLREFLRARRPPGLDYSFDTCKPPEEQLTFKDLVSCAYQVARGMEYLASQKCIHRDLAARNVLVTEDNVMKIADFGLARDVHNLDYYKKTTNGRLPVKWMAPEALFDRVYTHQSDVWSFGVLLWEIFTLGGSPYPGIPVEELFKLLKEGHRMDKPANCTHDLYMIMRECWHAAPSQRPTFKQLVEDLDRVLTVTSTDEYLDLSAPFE
FGFR3 kinase domain variant E466K (P22607, form named): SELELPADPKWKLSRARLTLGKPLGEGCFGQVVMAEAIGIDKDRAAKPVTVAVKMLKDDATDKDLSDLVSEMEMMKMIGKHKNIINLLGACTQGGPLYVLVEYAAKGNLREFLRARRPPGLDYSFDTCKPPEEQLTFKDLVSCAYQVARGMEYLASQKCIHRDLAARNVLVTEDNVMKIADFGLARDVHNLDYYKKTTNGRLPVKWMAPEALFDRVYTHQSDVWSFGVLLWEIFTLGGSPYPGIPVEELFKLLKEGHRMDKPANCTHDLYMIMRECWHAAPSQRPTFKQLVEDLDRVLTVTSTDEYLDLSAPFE
FGFR3 kinase domain variant K650E (P22607, form named): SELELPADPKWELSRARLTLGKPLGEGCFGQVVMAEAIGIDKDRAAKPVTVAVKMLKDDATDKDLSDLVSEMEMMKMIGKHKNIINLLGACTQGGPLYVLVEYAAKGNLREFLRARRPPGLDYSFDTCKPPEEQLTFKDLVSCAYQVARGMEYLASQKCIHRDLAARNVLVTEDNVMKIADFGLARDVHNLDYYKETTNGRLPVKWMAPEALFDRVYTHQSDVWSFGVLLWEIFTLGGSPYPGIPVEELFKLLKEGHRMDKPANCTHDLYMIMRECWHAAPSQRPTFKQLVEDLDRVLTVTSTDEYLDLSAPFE
UniProt P22455, residues 467-755: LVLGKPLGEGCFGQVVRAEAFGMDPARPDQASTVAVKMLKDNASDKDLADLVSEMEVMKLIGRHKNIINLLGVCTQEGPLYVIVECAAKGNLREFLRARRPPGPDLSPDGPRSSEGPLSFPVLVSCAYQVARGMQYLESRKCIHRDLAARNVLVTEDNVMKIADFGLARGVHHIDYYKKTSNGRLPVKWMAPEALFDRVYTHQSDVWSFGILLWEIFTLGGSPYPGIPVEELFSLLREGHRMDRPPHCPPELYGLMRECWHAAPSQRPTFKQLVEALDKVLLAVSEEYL
UniProt P21802, residues 481-770: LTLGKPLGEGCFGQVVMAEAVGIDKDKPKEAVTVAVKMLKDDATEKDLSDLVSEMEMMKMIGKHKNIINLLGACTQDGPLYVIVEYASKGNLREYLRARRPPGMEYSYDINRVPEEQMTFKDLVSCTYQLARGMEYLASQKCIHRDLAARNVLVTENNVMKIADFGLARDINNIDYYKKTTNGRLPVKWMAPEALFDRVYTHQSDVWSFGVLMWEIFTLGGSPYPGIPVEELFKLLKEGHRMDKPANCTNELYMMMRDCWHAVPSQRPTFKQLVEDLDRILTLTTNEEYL

Experiments:
[1] = molecular target: Cdc37 phosphorylated on serine 13 (human) (UniProt Q16543); assay: SEC; ternary mixture: 15 μM kinase, 15 μM Cdc37, 30 μM Hsp90α (1:1:2), 15 min at 4 °C; Superdex 200 Increase, 25 mM Tris.Cl, 150 mM NaCl, 1 mM TCEP, pH 8.0, 4 °C; fractions by SDS-PAGE and ELISA; both purified
[2] = molecular target: Cdc37 phosphorylated on serine 13 (human) (UniProt Q16543); assay: pull-down; 50 μg His-tagged Cdc37 immobilised on Talon resin; kinase added in 25 mM Tris.Cl, 150 mM NaCl, 1 mM TCEP, 0.1% Triton-X-100, pH 8.0, 4 °C, 1 h; Coomassie; both purified
[3] = molecular target: Cdc37 phosphorylated on serine 13 (human) (UniProt Q16543); assay: HDX-MS; protein of interest 5 μM alone or with 7.5 μM partner, 30 min on ice, 25 mM Tris.Cl pH 8.0, 150 mM NaCl, 1 mM TCEP; exchange 0.3 s to 300 s; both purified
Hsp90α (human) = Hsp90α (human) (UniProt P07900); assay: SEC; ternary mixture: 15 μM kinase, 15 μM Cdc37, 30 μM Hsp90α (1:1:2), 15 min at 4 °C; Superdex 200 Increase, 25 mM Tris.Cl, 150 mM NaCl, 1 mM TCEP, pH 8.0, 4 °C; fractions by SDS-PAGE and ELISA; both purified
[4] = molecular target: Cdc37 phosphorylated on serine 13 (human) (UniProt Q16543); assay: SAXS; synchrotron SAXS of Cdc37, FGFR3 I538F and their complex (batch dilution series 3.8 to 1.0 mg/mL and SEC-SAXS); both purified
[5] = molecular target: Cdc37 phosphorylated on serine 13 (human) (UniProt Q16543); assay: SEC; binary mixture: 15 μM kinase and 15 μM Cdc37 (1:1), 15 min at 4 °C; Superdex 200 Increase, 25 mM Tris.Cl, 150 mM NaCl, 1 mM TCEP, pH 8.0, 4 °C; both purified
[6] = molecular target: wild-type FGFR3 kinase domain (human) (UniProt P22607); assay: NMR titration; unlabelled Cdc37 added to 15N-labelled kinase domain (I538F 1:0.25, 1:0.5, 1:0.7; WT 1:0.7-1:3), 1H-15N TROSY-HSQC, 283-298 K; 50 mM PIPES-NaOH, 50 mM NaCl, 5 mM TCEP, 1 mM EDTA, pH 7.0; both purified
[7] = molecular target: FGFR3 kinase domain variant I538F (human) (UniProt P22607); assay: as above

Row | Substance | binding [1] | binding [2] | binding [3] | further results
1 | FGFR4 kinase domain (from UniProt P22455 467-755) (domain or fragment) | no binding (tested: 15 μM kinase, 15 μM Cdc37, 30 μM Hsp90α) | – | – | binding (Hsp90α (human)): no binding (tested: 15 μM kinase, 15 μM Cdc37, 30 μM Hsp90α)
2 | FGFR3 kinase domain variant N540K (from UniProt P22607 455-768) (domain or fragment) | binds | binds | – | –
3 | Cdc37 phosphorylated on serine 13 (from UniProt Q16543 1-378) | – | – | – | binding [6]: binds weakly; binding [7]: binds
4 | FGFR3 kinase domain variant K650E (from UniProt P22607 455-768) (domain or fragment) | – | binds weakly | – | –
5 | FGFR2 kinase domain (from UniProt P21802 481-770) (domain or fragment) | no binding (tested: 15 μM kinase, 15 μM Cdc37, 30 μM Hsp90α) | – | – | binding (Hsp90α (human)): no binding (tested: 15 μM kinase, 15 μM Cdc37, 30 μM Hsp90α)

Now from value to substance, other results behind:

Row | binding [1] | binding [2] | binding [3] | Substance | further results
6 | binds weakly | binds weakly | binds weakly | wild-type FGFR3 kinase domain (from UniProt P22607 455-768) (domain or fragment) | –
7 | binds | binds | binds | FGFR3 kinase domain variant I538F (from UniProt P22607 455-768) (domain or fragment) | binding [4]: binds
8 | binds | binds | binds | FGFR3 kinase domain variant E466K (from UniProt P22607 455-768) (domain or fragment) | binding [5]: binds
